Measured values: PubChem BioAssay AID493208 (National Center for Advancing Translational Sciences (NCATS), 2011)
Among all 44,000 compounds or so, about 340 (0.77%) were called active. Not shown: some 5% with an inconclusive outcome. The call rests on the fitted dose curve; in most records, active means well fitted inhibition curve with a large enough effect; inconclusive means small, poorly fitted or top-dose-only effect; inactive means flat fitted curve, though single readings scatter. The list shows a part of the results.

Experiment: Acumen qHTS Assay for Inhibitors of the mTORC1 Signaling Pathway in MEF (Tsc2-/-, p53-/-) Cells: Sytravon; further: nearly all actives have a fitted effect of over 50% in size;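 on activity change, negative = inhibition: plate controls were DMSO for no effect and rapamycin for full effect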
Conditions: phospho-rpS6 immunofluorescence/PI, 24 h; series mostly up to 38.3 µM; activity change, negative = inhibition: at the top concentration
Summary of the method: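 Tsc2-/-, p53-/- mouse embryonic fibroblasts (empty-vector line) exposed to compound 24 hrs at 37 C, fixed, immunostained for phospho-rpS6 and counterstained with propidium iodide. Acumen laser scanning gives % positive cells from Alexa 488/PI ratio, thresholded using 7.5 nM rapamycin; PI count gives viability.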
Potency means the concentration at half of the fitted maximal effect.

Row | SMILES | activity change, negative = inhibition | Potency
1 | COc1ccc(C(=O)c2oc3ccccc3c2NC(=O)COc2ccccc2)cc1 | inactive: -1.16% | –
2 | COc1ccc(CCNC(=O)c2sc3nc4n(c(=O)c3c2C)CCCC4)cc1OC | inactive: -3.86% | –
3 | CCc1cccc(C)c1NC(=O)CC1Oc2ccc(C)cc2NC1=O (configuration not stated) | inactive: 0.684% | –
4 | CC(C)n1c(=N)c(C(=O)NCc2cccnc2)cc2c(=O)n3ccccc3nc21 | inactive: -2.59% | –
5 | O=C(COc1ccc(Cl)cc1)OCc1cc(=O)n2nc(-c3cccs3)sc2n1 | inactive: 1.63% | –
6 | O=C(Cn1c(=O)n(Cc2ccco2)c(=O)c2ccc(C(=O)NC3CCCC3)cc21)Nc1ccc(F)cc1 | inactive: -0.116% | –
7 | COc1ccc(-n2nc(C(=O)NCCc3ccc(Cl)cc3)c3c4ccccc4n(C)c3c2=O)cc1Cl | inactive: -1.79% | –
8 | Cc1cc(C)n(CC(=O)Nc2ccc(F)c(F)c2)c(=O)c1C#N | inactive: 17.7% | –
9 | N#C/C(=C\c1ccc(-c2ccccc2C(=O)O)o1)c1nc2ccccc2[nH]1 | inactive: 11.8% | –
10 | O=C(Cn1nc2c(cc1=O)CCCC2)Nc1ccc(F)cc1F | inactive: -0.676% | –
11 | COc1ccc(CCNC(=O)c2c(O)nc3cc(C)ccn3c2=O)cc1OC | inactive: 0.293% | –
12 | Cc1cc(-c2ccc(C)c(S(=O)(=O)N3CCCC(C)C3)c2)on1 (configuration not stated) | inactive: 4.16% | –
13 | CCc1ccc(CNC(=O)c2ccc(CSc3nc4ccncc4n3Cc3ccc(OC)cc3)cc2)cc1 | inactive: 0.566% | –
14 | COc1ccc(N2CCN(C(=O)Cc3coc4ccc(C)cc34)CC2)cc1 | inactive: -10% | –
15 | O=S(=O)(Nc1cccc(Cl)c1)c1ccc2[nH]c3c(c2c1)CCCCCC3 | inactive: -17.9% | –
16 | CC(C)Oc1cccc(NC(=O)C2CCN(S(=O)(=O)Cc3ccccc3)CC2)c1 | inactive: 4.26% | –
17 | COc1ccc(C)cc1NC(=O)C(=O)NCCc1sc(-c2ccc(Cl)cc2)nc1C | inactive: -1.86% | –
18 | CCOC(=O)c1c(NC(C)=O)c2c3c(sc2n1Cc1nc(-c2ccc(Cl)cc2)oc1C)CCCC3 | inactive: 3.5% | –
19 | CCc1noc(-c2ccc(NC(C)c3ccccc3)c([N+](=O)[O-])c2)n1 (configuration not stated) | inactive: -18.4% | –
20 | CCN(CC)C(=O)C1=C(C)Nc2nc3ccccc3n2C1c1ccc(Br)cc1 (configuration not stated) | inactive: 2.02% | –
21 | CC(=O)c1cccc(NC(=O)CCS(=O)(=O)c2cc3c(cc2C)NC(=O)CO3)c1 | inactive: 4.67% | –

Row | SMILES | activity change, negative = inhibition | Potency
22 | CCOC(=O)c1c(S(=O)(=O)N2CCC(C(=O)N3CCN(c4cccc(C)c4C)CC3)CC2)c(C)n(C)c1C | inactive: -0.26% | –
23 | CCC(CC)C(=O)Nc1cc(-c2cn3cccnc3n2)ccc1OC | inactive: -1.37% | –
24 | CCOc1ccccc1C1N=C(N)Nc2nc3ccccc3n21 (configuration not stated) | inactive: -9.41% | –
25 | Cc1nc(N2CCCC2)c2c(C(=O)Nc3ccc(C)c(Cl)c3)c(C)oc2n1 | inactive: 3.39% | –
26 | Cc1ccccc1-c1nnc(CN2CCN(c3cc(Cl)ccc3C)CC2)o1 | inactive: 1.23% | –
27 | O=C(CSc1nnc(COc2ccc(Cl)cc2)o1)Nc1ccccc1 | inactive: -5.23% | –
28 | CCOc1ccc(C(=O)Nc2c(C(=O)c3ccccc3)oc3ccccc23)cc1 | inactive: 3.54% | –
29 | COc1ccc(C(CC(=O)Nc2ccc(C)cn2)N2Cc3ccccc3C2=O)cc1OC (configuration not stated) | inactive: -9.09% | –
30 | CCOC(=O)N1CCC(NC(=O)c2ccc3c(c2)N(Cc2cccc(C)c2)C(=O)c2ccccc2S3(=O)=O)CC1 | inactive: -10.7% | –
31 | COc1cccc(CNC(=O)c2nnn(CC(=O)Nc3cc(Cl)ccc3C)c2N)c1 | inactive: -1.87% | –
32 | O=S(=O)(c1ccc(F)cc1)N1CCC(Oc2ccc(-n3cnnn3)cc2)CC1 | inactive: 0.841% | –
33 | Cc1cccc(N2C(=O)C(CC(=O)Nc3cccc(F)c3)N(Cc3cccs3)C2=O)c1 (configuration not stated) | inactive: 0% | –
34 | CCC(=O)N1CCc2cc(Br)cc(S(=O)(=O)CCC(=O)Nc3cccc(CC)c3)c21 | inactive: 2.55% | –
35 | Cc1ccc(-c2ccc(=O)n(Cc3ccc(F)cc3)n2)cc1 | inactive: 1.66% | –
36 | COc1cccc(CNC(=O)Cn2c(=O)oc3cc(S(=O)(=O)N4CCCC4)ccc32)c1 | inactive: -0.766% | –
37 | Cc1ccc(CN2CCSc3ccc(C(=O)Nc4ccc(Cl)cc4)cc32)cc1 | inactive: -19.1% | –
38 | CCCN(CCC)CCCNC(=O)c1cc2c(=O)oc3ccc(C)cc3c2s1 | inactive: -14.3% | –
39 | CC(NC(=O)C1(c2cccs2)CCOCC1)c1ccccc1 (configuration not stated) | inactive: -0.0434% | –
40 | CCn1cc(C(=O)N2CCN(c3cc(Cl)ccc3C)CC2)c2cc(OC)c(OC)cc2c1=O | inactive: -17.4% | –
41 | CCOc1ccc(CCNC(=O)CCCc2cc(-c3ccc(OCC)cc3)on2)cc1 | inactive: -0.787% | –
42 | Cc1nc2cccnc2n1C1CCN(S(=O)(=O)c2ccc(Cl)cc2)CC1 | inactive: 9.92% | –

Row | SMILES | activity change, negative = inhibition | Potency
43 | O=C(Cc1csc2ccccc12)NCc1cccc(Br)c1 | inactive: 2.17% | –
44 | Cc1ccccc1CN1CCC(CNc2ncnc3onc(-c4ccc(Cl)cc4)c23)CC1 | inactive: -0.814% | –
45 | CN(C)S(=O)(=O)n1cc(/C=C(\NC(=O)c2ccccc2F)C(=O)NCCCn2ccnc2)c2ccccc21 | inactive: -7.93% | –
46 | Cc1ccc(NC(=O)C2CCCN(c3ncnc4c3nc3n4CCCCC3)C2)cc1F (configuration not stated) | inactive: 0.931% | –
47 | CCOc1ccc(NC(=O)c2c(NC(=O)c3ccco3)sc3c2CCC(C(C)(C)C)C3)cc1 (configuration not stated) | inactive: -11% | –
48 | O=C(O)CC(NS(=O)(=O)c1ccc(Cl)s1)c1ccccc1 (configuration not stated) | inactive: 6.46% | –
49 | COc1cc(NS(=O)(=O)c2ccc(NC(=O)C(C)Oc3ccc(Cl)cc3Cl)cc2)nc(OC)n1 (configuration not stated) | inactive: 3.98% | –
50 | O=C(Nc1cccc(C(F)(F)F)c1)C1CCN(c2nnc(-n3cccc3)s2)CC1 | inactive: 0.878% | –
51 | COc1ccc(Nc2c(-c3ccc(Cl)cc3)nc3cnccn23)cc1OC | inactive: 0.532% | –
52 | Cc1cc(C)cc(Oc2coc3c(CN4CCN(C)CC4)c(O)ccc3c2=O)c1 | inactive: -5.49% | –
53 | O=C(NCc1ccccc1Cl)C1CCN(S(=O)(=O)c2ccc3c(c2)CCCN3C(=O)C2CCC2)CC1 | inactive: -3.21% | –
54 | CCC12CN3CC(C)(CN(C1)C3c1ccc(O)cc1O)C2=O (configuration not stated) | inactive: -6.07% | –
55 | COc1cccc(C(=O)Nc2cc(-c3cn4cccnc4n3)ccc2C)c1OC | inactive: -0.616% | –
56 | CCOc1ccc(NC(=O)c2sc3nc4c(cc3c2N)CCCCCC4)cc1 | – | active: 20.7 µM
57 | Cc1nc2ccccn2c(=O)c1NC(=O)c1c(F)cccc1F | inactive: -4.9% | –
58 | Cc1ccc(OCC(=O)Nc2ccccc2C(=O)OCc2cc(=O)n3nc(C4CC4)sc3n2)cc1 | inactive: 1.91% | –
59 | O=C(c1cccs1)N(Cc1cccnc1)c1nc2ccc(F)cc2s1 | inactive: -2.7% | –
60 | CCn1cc(S(=O)(=O)c2ccc(OC)cc2)c(=O)c2cc(F)c(N3CCC(C)CC3)cc21 | inactive: 0.0421% | –
61 | CCCN(CCC)CCCNC(=O)C1CCC(CNS(=O)(=O)c2cccc3nsnc23)CC1 (configuration not stated) | inactive: -9.34% | –
62 | CCCCNS(=O)(=O)c1ccc2nc(-c3cccnc3)cc(C(=O)NCCC)c2c1 | inactive: 0.868% | –
